Among all 310,000 compounds or so, about 2,200 (0.71%) showed an effect of 50% or more. The effect is printed as a negative number. Some of the results follow.
Target: human ether-à-go-go-related gene (hERG) potassium channel (human, UniProt Q12809)
Assay: primary screen, population patch clamp on CHO cells stably expressing hERG

Sequence of human ether-à-go-go-related gene (hERG) potassium channel (Q12809 whole entry, looked up): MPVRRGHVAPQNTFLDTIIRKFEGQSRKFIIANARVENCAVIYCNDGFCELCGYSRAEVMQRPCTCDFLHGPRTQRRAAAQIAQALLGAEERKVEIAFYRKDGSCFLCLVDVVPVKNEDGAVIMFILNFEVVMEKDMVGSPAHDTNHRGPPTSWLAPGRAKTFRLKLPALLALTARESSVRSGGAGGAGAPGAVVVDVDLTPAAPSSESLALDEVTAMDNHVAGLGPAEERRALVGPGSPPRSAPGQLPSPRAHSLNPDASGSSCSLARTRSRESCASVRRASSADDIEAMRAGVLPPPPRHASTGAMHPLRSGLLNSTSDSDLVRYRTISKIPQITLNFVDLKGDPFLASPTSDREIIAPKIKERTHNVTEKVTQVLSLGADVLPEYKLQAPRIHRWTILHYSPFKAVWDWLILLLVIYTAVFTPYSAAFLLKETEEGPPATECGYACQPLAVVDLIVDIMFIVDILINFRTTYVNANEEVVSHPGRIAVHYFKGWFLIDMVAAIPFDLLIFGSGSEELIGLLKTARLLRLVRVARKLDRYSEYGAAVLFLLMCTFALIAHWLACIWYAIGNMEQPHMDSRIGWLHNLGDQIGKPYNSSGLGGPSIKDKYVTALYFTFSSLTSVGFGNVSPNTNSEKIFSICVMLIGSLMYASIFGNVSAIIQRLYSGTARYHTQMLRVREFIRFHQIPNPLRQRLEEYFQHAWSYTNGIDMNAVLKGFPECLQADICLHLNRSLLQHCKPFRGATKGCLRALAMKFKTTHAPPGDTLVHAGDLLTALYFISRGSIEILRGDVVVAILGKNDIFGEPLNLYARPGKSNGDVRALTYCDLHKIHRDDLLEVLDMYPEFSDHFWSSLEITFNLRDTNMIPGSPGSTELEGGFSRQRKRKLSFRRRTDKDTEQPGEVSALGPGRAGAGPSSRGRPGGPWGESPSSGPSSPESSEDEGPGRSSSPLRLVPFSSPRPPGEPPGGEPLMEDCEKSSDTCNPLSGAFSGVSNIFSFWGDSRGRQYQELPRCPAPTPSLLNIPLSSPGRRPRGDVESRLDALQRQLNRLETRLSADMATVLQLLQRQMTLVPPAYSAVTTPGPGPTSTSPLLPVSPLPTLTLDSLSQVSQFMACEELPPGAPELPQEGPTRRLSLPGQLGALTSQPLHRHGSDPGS

Row | Compound | hERG current change (%, negative = inhibition) at 1uM
1 | CC(O)CNc1nc2c(c(=O)n(Cc3ccc(Br)cc3)c(=O)n2C)n1C (centres unmarked) | 9.5%
2 | Cc1cc(C)c(C(=O)/C=C/C=C/c2ccccc2)c(=O)[nH]1 | 16.4%
3 | CN(CCOc1ccccc1)CC(=O)Nc1ccc(S(=O)(=O)N2CCCC2)cc1 | 6.97%
4 | CC(C)C(NC(=O)c1ccc(C(C)(C)C)cc1)C(=O)NCc1ccccn1 (centres unmarked) | 12.4%
5 | CCCOc1ccc(/C(O)=C2/C(=O)C(=O)N(CCN(C)C)C2c2ccc(OC)c(OC)c2)cc1 (centres unmarked) | 14.9%
6 | O=C(NCc1nc2ccccc2[nH]1)C1=C[C@@H](c2ccccc2)C[C@@H](OCCCCO)O1 | -9.02%
7 | COc1ccc(CN2CCN(C(=O)C3CCC(CNS(=O)(=O)c4ccc(C)cc4)CC3)CC2)c(OC)c1OC (centres unmarked) | 10.5%
8 | COc1cccc(C(=O)NC2CCNCC2)c1 | 11.9%
9 | Cn1c(=NC(=O)C2=NNC(=O)CC2)sc2ccccc21 | 15.7%
10 | CN=c1sc2ccccc2n1CC(O)COCc1ccco1 (centres unmarked) | -28.5%
11 | Cc1ccc(NC(N)=S)cc1C | 12.5%
12 | CCOc1ccc(S(=O)(=O)NCc2ccc3c(c2)OCO3)cc1C | 13.5%
13 | CC1(CC(=O)NNC(=O)Nc2ccccc2)OCCCO1 | -16.9%
14 | CCc1ccccc1N1CC(C(=O)Nc2nccs2)CC1=O (centres unmarked) | 8.14%
15 | CCC(CC)C(=O)NCCc1cc2c(OC)ccc(OC)c2[nH]c1=O | -14.2%
16 | COc1cccc(NC(=O)Cn2nnc(C(=O)NCc3cccs3)c2N)c1 | 4.61%
17 | O=C(NCC1OCCc2ccccc21)c1ccc(NC(=O)c2ccc(Cl)cc2)cc1 (centres unmarked) | -5.81%
18 | O=C(COC(=O)C1CC2C=CC1C2)Nc1ccc2c(c1)OC(F)(F)O2 (centres unmarked) | 0.0753%
19 | CCOc1cc(NC(=S)Nc2cccc(OC)c2)c(OCC)cc1NC(=O)C1CC1 | 10.4%

Row | Compound | hERG current change (%, negative = inhibition) at 1uM
20 | CNC(=O)c1c(NC(=O)c2cccc(C)c2)sc2c1CCC2 | 14.8%
21 | CN(C)/C=C(\C=O)c1c(Cl)cccc1Cl | 19.7%
22 | Cn1c(NNC(=O)C2CCCCC2)cc(=O)n(C)c1=O | 10.8%
23 | CCn1c(SCC(=O)Nc2cccc(C)n2)nc2c1c(=O)n(C)c(=O)n2C | 4.52%
24 | COc1ccc(C2C(C#N)=C(N)OC3=C2C(=O)CCC3)cc1Cn1nc(C)c([N+](=O)[O-])c1C (centres unmarked) | -1.87%
25 | COCCN(C(=O)CCC(=O)Nc1ccccn1)C(C(=O)NC(C)C)c1ccc(Cl)cc1 (centres unmarked) | 9.21%
26 | COC(=O)c1ccccc1NC=C1C(=O)OC2(CCCCC2)OC1=O | 9.35%
27 | S=C(c1cn(Cc2ccccc2)c2ccccc12)N1CCOCC1 | 8.22%
28 | Cc1ccc(C2=NNC3(CCOC(C)(C)C3)S2)cc1 (centres unmarked) | 0.551%
29 | CCOC(=O)C1CCCN(C(=O)c2ccccc2SCCOC)C1 (centres unmarked) | 6.87%
30 | Cc1ccc(SCC(=O)OC(C)C(=O)Nc2ccc(S(N)(=O)=O)cc2)cc1C (centres unmarked) | 20.1%
31 | CCCNC(=O)COC(=O)c1cc(C)nc2ccccc12 | 12.6%
32 | CCOc1cc(/C=N/NC(=O)CNc2cccc(C)c2)ccc1OC(=O)c1ccccc1 | 9.63%
33 | Cc1cc(Cl)c(S(=O)(=O)N2CCN(c3ccccc3)CC2)cc1OCC(N)=O | 7.06%
34 | Cc1ccc(-c2nnc(CSc3nc(C(C)C)nc4sc(C)c(C)c34)o2)cc1 | -10.7%
35 | COc1ccccc1N(CC(=O)NCCN1CCOCC1)S(=O)(=O)c1ccccc1 | 16.4%
36 | O=C(c1cccs1)N1CCc2ccccc21 | -4.39%
37 | COc1ccc(NC(=S)NCc2ccccn2)cc1OC | 7.17%
38 | O=C1N[C@@H](Cc2ccccc2)C(=O)N1CCN1CCOCC1 | 12.2%

Row | Compound | hERG current change (%, negative = inhibition) at 1uM
39 | Cc1ccc(S(=O)(=O)N2CCC(C(=O)NN3CCCCC3)CC2)cc1 | 9.51%
40 | O=C(NCc1cccc(C(F)(F)F)c1)c1ccc2c(c1)OCCO2 | 10%
41 | Cc1ccc(C)c(NC(=O)CCN2CCN(c3ccccc3F)CC2)c1 | 0.666%
42 | Cc1nc(SCCO)c([N+](=O)[O-])[nH]1 | 12.4%
43 | COc1cc(/C=C/c2ccc3c([N+](=O)[O-])cccc3n2)ccc1OCC(=O)O | 11%
44 | O=C(CSc1nc2ccccc2c(=O)n1CCCN1CCOCC1)c1c[nH]c2ccccc12 | 0.908%
45 | CC(=O)c1c(C)[nH]c(C(=O)CN2C(=O)NC(C)(CCC(C)C)C2=O)c1C (centres unmarked) | 14.7%
46 | O=C(NCc1ccc2c(c1)OCO2)C1CCC(CNc2c(N3CCCC3)c(=O)c2=O)CC1 (centres unmarked) | 14.5%
47 | COc1ccc(CN2CCC(C(=O)N3CCN(c4ccccc4F)CC3)CC2)cc1OC | 3.9%
48 | CC(C)N(Cc1cnn(C)c1)Cc1nc(Cc2ccccc2Cl)no1 | 4.8%
49 | CCCn1nc(C(=O)N2CCCc3ccccc32)c2ccccc2c1=O | -4.52%
50 | CCc1ccc(N2CCN(C(=O)c3ccc(OC)c(OC)c3)CC2)cc1 | -8.2%
51 | O=C(CSc1nccc(-c2cccs2)n1)Nc1cccc(Cl)c1Cl | 13.6%
52 | CC(=O)Oc1ccc(-c2ccc(C(=O)OCC(=O)N(C)CC(=O)Nc3ccccc3Cl)cc2)cc1 | -41%
53 | CC(C)(C)c1ccc(C(=O)Nc2ccc(S(=O)(=O)Nc3cnc4ccccc4n3)cc2)cc1 | -8.1%
54 | Oc1cccc(-n2nnnc2SCc2ccccc2F)c1 | 8.72%
55 | CC(C)=NOc1cc(NC(=O)CCl)cc([N+](=O)[O-])c1 | 6.87%
56 | O=C(NC(Cc1c[nH]c2ccccc12)C(=O)N/N=C/c1ccc(Cl)cc1)c1cccs1 (centres unmarked) | 0.956%
